These are literature values, as cited in US20230201216A1, “AZELASTINE AS ANTIVIRAL TREATMENT” (priority 2020, published 2023).

Structures can show the parent of a compound that is named as a salt.

The data set has as its system SARS-CoV-2. Particulars: Vero E6 cells (not expressing TMPRSS2); ref. Hoffmann et al.; cited from earlier work.

Consider `CCN(CCO)CCCC(C)Nc1ccnc2cc(Cl)ccc12` (stereo not shown) [Hydroxychloroquine sulfate], for which the “anti-SARS-CoV-2 effect on Vero E6 cells” value is reported as “strong anti-SARS-CoV-2 effect”.
